Assay results: the supplement of paper PMC4206461
This is one part of the list.

tested on: Pseudomonas aeruginosa PA14 dppA1-A5 penta deletion mutant; assay: respiration area under curve with compound as sole nitrogen source, 24 h (OmniLog AUC (arbitrary units)); higher = more respiration / better utilisation as nitrogen source, active = 2000 or more; extreme values may be limits of the assay; settings: plate: PM6
Description: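 Biolog Phenotype MicroArray plates PM6-PM8: each di/tripeptide is the sole nitrogen source. Tetrazolium reduction was read in the OmniLog for 24 h at 37°C and summarised as area under the respiration curve (arbitrary units). Values below 2000 count as no respiration.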

Row | SMILES | respiration area under curve
1 | C[C@H](N)C(=O)N[C@@H](CC(N)=O)C(=O)O | active: 7210
2 | C[C@H](NC(=O)CN)C(=O)O | inactive: 417
3 | C[C@H](N)C(=O)N[C@H](C(=O)O)[C@@H](C)O | active: 3380
4 | NC(=O)CC[C@H](NC(=O)[C@@H](N)CCC(N)=O)C(=O)O | active: 5790
5 | N[C@@H](CCC(=O)O)C(=O)N[C@@H](Cc1c[nH]c2ccccc12)C(=O)O | active: 2350
6 | CC[C@H](C)[C@H](N)C(=O)N[C@@H](CCCN=C(N)N)C(=O)O | active: 9180
7 | CC[C@H](C)[C@H](N)C(=O)N[C@@H](CCSC)C(=O)O | inactive: 229
8 | NCC(=O)N[C@@H](CCCN=C(N)N)C(=O)O | active: 8670
9 | C[C@H](N)C(=O)N[C@@H](Cc1ccccc1)C(=O)O | active: 5060
10 | CC[C@H](C)[C@H](NC(=O)[C@@H](N)CCCN=C(N)N)C(=O)O | active: 9510
11 | NC(=O)CC[C@H](N)C(=O)NCC(=O)O | active: 3260
12 | CC(C)[C@H](NC(=O)CN)C(=O)O | inactive: 413

same assay, conditions: plate: PM7

Row | SMILES | respiration area under curve
13 | CSCC[C@H](N)C(=O)N[C@H](C(=O)O)C(C)C | active: 2020
14 | N[C@@H](CO)C(=O)N[C@@H](CO)C(=O)O | inactive: 1960
15 | C[C@H](NC(=O)[C@@H](N)[C@@H](C)O)C(=O)O | active: 4340
16 | O=C(O)CNC(=O)[C@@H]1CCCN1 | inactive: 792
17 | N[C@@H](Cc1ccc(O)cc1)C(=O)N[C@@H](Cc1c[nH]c2ccccc12)C(=O)O | active: 4130
18 | CC(C)C[C@H](N)C(=O)N[C@@H](CO)C(=O)O | active: 12700
19 | C[C@@H](O)[C@H](N)C(=O)N[C@@H](CCCN=C(N)N)C(=O)O | active: 15100
20 | O=C(O)[C@@H]1C[C@@H](O)CN1C(=O)[C@@H]1CCCN1 | inactive: 0

same assay, conditions: plate: PM8

Row | SMILES | respiration area under curve
21 | CC(C)C[C@@H](N)C(=O)N[C@H](CC(C)C)C(=O)O | inactive: 0
22 | CC[C@H](C)[C@H](NC(=O)CN)C(=O)O | inactive: 1870
23 | CC(C)C[C@H](N)C(=O)N[C@H](CC(C)C)C(=O)O | inactive: 1.29
24 | CC(C)[C@H](N)C(=O)N[C@@H](CCC(N)=O)C(=O)O | inactive: 1150
25 | NCC(=O)N[C@H](CC(=O)O)C(=O)O | inactive: 0
26 | C[C@H](NC(=O)CNC(=O)CN)C(=O)O | inactive: 328
27 | O=C(O)CC[C@H](NC(=O)[C@@H]1CCCN1)C(=O)O | inactive: 0
28 | NC(CO)C(=O)NC(CCC(=O)O)C(=O)O (stereo unspecified) | inactive: 0
29 | NC(=O)C[C@H](NC(=O)[C@@H](N)CO)C(=O)O | active: 10500
30 | CC(C)[C@H](NC(=O)[C@H](C)N)C(=O)O | inactive: 1270
31 | C[C@@H](NC(=O)CN)C(=O)O | inactive: 0
